Measurements as given in the supplement of paper PMC10126150.
Sequences with one replicate were seen in a single cluster, so their values are uncertain.

Test system: ATP
Assay: switch fluorescence ratio, 500 uM ATP over buffer (Cy3 cluster intensity, sum of 5 cycles each) (fold (ratio)); higher = stronger signal-on switching upon ATP binding; sequences stand for … in TCGTCGGCAGCGTCAGATGTGTATAAGAGACAGTTTTTTTTTTTTTTTTTTTTTTTTT…TC
Details: aptamer strand: ATP DNA aptamer (quencher-CACCTGGGGGAGTATTGCGGAGGAAGG + anchor), 100 nM annealed; ATP concentration: 500 uM; one replicate
Summary of the method: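 Five buffer/ATP imaging cycles were run on Cy3-labelled switching-strand clusters on a modified Illumina MiSeq flow-cell, with NaOH stripping and re-annealing between cycles. In each cycle, clusters annealed to 100 nM quencher-labelled ATP aptamer were imaged in selection buffer, then after 15 min with 500 uM ATP at 22 °C. Per cluster, the fluorescence ratio is summed target-cycle over summed buffer-cycle Cy3 intensity, averaged per switch-domain sequence. Only clusters within 100-1000 RFU were kept.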
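Note: ATP exposure 15 min at 22 °C before imaging.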

Row | Sequence | switch fluorescence ratio
1 | CCAGCTTAAT | 1.03
2 | CACGTATGTG | 0.999
3 | GTTGGACATA | 1.02
4 | CAATATAGG | 1
5 | CACCGAGATG | 1.07
6 | TCGTGCGGCT | 0.966
7 | GACAGCGTCG | 1.01
8 | TCCCCGAATG | 1.07
9 | ACCGGCTGGG | 0.991
10 | ATGTCACAAT | 1.03
11 | GTTAGTGCGG | 0.968
12 | TGTTGAAGGA | 1.75
13 | CCAACTTAAC | 1.09
14 | CGTTAGTTCG | 1.01
15 | GGGAAATCCA | 1.01
16 | GGCCGGTTTA | 1.01
17 | ATTAGGGGTG | 1.11
18 | GAGGGGGCA | 0.989
19 | GGAAGGCCGT | 0.999
20 | GCGTTATGGC | 1.03
21 | AAATCATCGC | 1.07
22 | TCGTTACCGA | 1.04
23 | CAGAAAAACC | 0.986
24 | ATAATAGCAG | 0.947
25 | ATCGTTAGCG | 0.983
26 | GGTGTCATCG | 0.955

Row | Sequence | switch fluorescence ratio
27 | TTTATTGGCA | 1.03
28 | GCTGCCAGTA | 1.04
29 | ATTAATGTGC | 1.03
30 | TCCAGGAAAG | 0.999
31 | GGTGAAGCAT | 0.996
32 | CCCTCAACAA | 2.27
33 | GGGGGGCGTA | 1.09
34 | TAGAGCCGGT | 1.02
35 | AAGTAAACAG | 0.984
36 | TCTAGAATTT | 1.02
37 | TTCCCTACGT | 1.35
38 | TTAACCAAAA | 1.02
39 | GCGTCTAAAT | 0.964
40 | AACTGTGCAG | 0.969
41 | ACAGCTGAGG | 0.975
42 | GGAAAAATAT | 0.933
43 | AACCGCAAGG | 1
44 | GTATTGCCTT | 1.02
45 | TCGCGCGGG | 0.964
46 | ATGTCCCCAT | 1.02
47 | AAAACATGCG | 1.07
48 | GGTTTCAAGT | 0.944
49 | TCGATTTGCT | 0.972
50 | CAATTCTGGT | 0.953
51 | TCTGTAGTCG | 1.02
52 | TAGAGTCGGA | 0.986

Row | Sequence | switch fluorescence ratio
53 | TATTCAAAAG | 0.98
54 | CAAGAGGCAT | 1
55 | GCCTGGGTAA | 0.999
56 | ACGCGTTGTA | 1.04
57 | GTACGAAT | 0.993
58 | ATCATGGGCT | 0.983
59 | GTCCGGAAGG | 1.02
60 | ACCCGTACTG | 1.18
61 | ATATTCGTGG | 1.01
62 | ACAGAGCAGT | 1.53
63 | TCTTGGTCCG | 0.965
64 | TGACAACTAG | 1.03
65 | AAGATAACCG | 1.03
66 | GACCAAGATA | 0.999
67 | ATATACAACT | 1.07
68 | TGTTCGGTTG | 1
69 | GGCGAAGGGG | 1.1
70 | CATGAGATAA | 1.02
71 | ATATCGACGC | 1.48
72 | CGTTCCTCTC | 1.57
73 | GCGATGGCGT | 1.02
74 | CTAGGCGAGT | 1.02
75 | CCGAGCGGTG | 2
76 | ACGTGTTACG | 1.02
77 | GCAGCTAAGT | 1.1
78 | GCCAGGCAGC | 1.04

Row | Sequence | switch fluorescence ratio
79 | TCGCCTGTT | 1.02
80 | AGGGTTGAGG | 1.08
81 | CGGCTGATAA | 1.02
82 | TCGGCCTAGG | 0.997
83 | GGTCCGTTTG | 1.01
84 | CGACTTAACT | 1.07
85 | ACGCTGGTAC | 2.32
86 | AGTAACCGCT | 1.09
87 | GCCTTTACAT | 0.98
88 | GACTGCTACA | 1.37
89 | GACATGCGGG | 1.06
90 | ACGGCGCCTC | 1.02
91 | AATAGTTAAC | 0.99
92 | GGCGGCATGA | 0.971
93 | GGTATCATAA | 0.987
94 | AATAGCGGGT | 0.951
95 | AGGGACGTCA | 1.06
96 | GATGTTTCTT | 1
97 | TCACAGCTGC | 1.08
98 | CCGGTTGGTC | 1.02
99 | ATCCTTCTAG | 1.03
100 | GTACGGACAG | 1.33
101 | GATCCCACTT | 1.01
102 | AGCTTTGAGG | 1.01
103 | GAATCATGTA | 0.99
104 | AATAAAGTAG | 0.962

Row | Sequence | switch fluorescence ratio
105 | TTTCAGCGCT | 1.01
106 | TATTGTAGAT | 1.03
107 | TTGGAGGCGC | 0.987
108 | CAGCTCCCAA | 2.32
109 | TCGTCCACA | 1.18
110 | GCTTTACTAT | 0.989
111 | TGCACCATAT | 1.08
112 | GTCTCTATTA | 1.01
113 | CTGATTGAGA | 0.991
114 | CATTATCCAG | 1.02
115 | GGGGATTGCG | 0.952
116 | GTCGGCAGCT | 0.97
117 | TTTCGAGGCG | 1.04
118 | GGTAAGACTC | 1.16
119 | CCTGGCGT | 1.04
120 | CATTGTCTCT | 1.02
121 | TGCCGTTCTG | 0.989
122 | TGGTTACAGC | 0.967
123 | CATGTCTCGG | 0.976
124 | ACAAAAAGGA | 1.03
125 | CAGCTCCGCG | 1.19
126 | ATAAATTATA | 1.02
127 | TTCAGTCTCC | 1.02
128 | GATTAGAAC | 0.99
129 | TGTTTGTCAA | 1.01
130 | TGTCCGGCCT | 0.962

Row | Sequence | switch fluorescence ratio
131 | ATAAGTCTAA | 0.957
132 | GGACTTTTCG | 1.06
133 | AGATGCTGGA | 1.01
134 | CAAGCTGCTC | 1.13
135 | ATAGGAGGAA | 1
136 | TAAACGATCT | 1.01
137 | ACGCGATTGA | 1.03
138 | TTGAGAGTAA | 1.02
139 | TTGCTTGCTA | 1
140 | ACGGTAATTG | 1.13
141 | TCAATGCAGA | 0.999
142 | CAAGCGTAAT | 1.13
143 | AATAGCTATG | 1
144 | CCAGATACGC | 1.29
145 | CACTCGGGTA | 1.02
146 | TTAGAGTCGC | 1.01
147 | CTTAAAATTA | 0.999
148 | AGATAAATAG | 1.03
149 | TCTAGGATCG | 1.03
150 | AAATCGTCCC | 1.11
151 | TGCAACTGCG | 1.02
152 | CGTTAGTGCT | 0.962
153 | GTCAAAGGAG | 1
